In US20230242607A1 (EUTILEX, published 2023):

What was measured:
[1] = molecular target: T1, IL2-RA (UniProt P01589 22-213, limits assumed); assay: SPR, Biacore T200; IL-2-Fc on CM5 chip, receptor injected; 1:1 model
T1 construct: Bought recombinant protein (Sino); also called CD25; IL-2Rα
T1 sequence (looked up): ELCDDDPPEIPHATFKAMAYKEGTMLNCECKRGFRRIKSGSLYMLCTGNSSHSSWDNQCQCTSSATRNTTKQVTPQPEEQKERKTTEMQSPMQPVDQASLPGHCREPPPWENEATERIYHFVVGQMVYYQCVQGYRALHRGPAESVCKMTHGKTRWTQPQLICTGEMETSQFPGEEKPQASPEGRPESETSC
Protocol: (§1) The affinity of additional IL-2 variants to IL-2 receptors, IL2-RA and IL2-RB, was analyzed using surface plasmon resonance (SPR). The IL-2 variants were diluted to a concentration of 2 ug/mL then immobilized on CM5 chip (GE Healthcare, Cat#BR-1005-30). Biacore T200 (GE healthcare) was used to measure and analyze affinity of each IL-2 variant, where the results were analyzed with a 1:1 binding model by BIAevaluation software, as described in Example 4.

[2] = molecular target: T2, IL2-RB (UniProt P14784 27-239, limits assumed); assay: as above
T2 construct: Bought recombinant protein (Sino); also called CD122; IL-2Rβ
T2 sequence (looked up): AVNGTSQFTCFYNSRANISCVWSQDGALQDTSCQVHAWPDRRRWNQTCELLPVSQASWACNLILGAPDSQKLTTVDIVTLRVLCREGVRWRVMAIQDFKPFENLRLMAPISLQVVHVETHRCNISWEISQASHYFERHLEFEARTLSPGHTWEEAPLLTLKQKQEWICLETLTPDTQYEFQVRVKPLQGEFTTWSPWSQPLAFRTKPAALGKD
Protocol: as §1

Kd [1]: 0.912 nM
koff [1]: 0.000258 s⁻¹
kon [1]: 283000 M⁻¹ s⁻¹
Kd [2]: 62.8 nM
koff [2]: 0.0265 s⁻¹
kon [2]: 421000 M⁻¹ s⁻¹
B1: wild-type IL-2 Fc fusion protein (Fc fusion)
chain: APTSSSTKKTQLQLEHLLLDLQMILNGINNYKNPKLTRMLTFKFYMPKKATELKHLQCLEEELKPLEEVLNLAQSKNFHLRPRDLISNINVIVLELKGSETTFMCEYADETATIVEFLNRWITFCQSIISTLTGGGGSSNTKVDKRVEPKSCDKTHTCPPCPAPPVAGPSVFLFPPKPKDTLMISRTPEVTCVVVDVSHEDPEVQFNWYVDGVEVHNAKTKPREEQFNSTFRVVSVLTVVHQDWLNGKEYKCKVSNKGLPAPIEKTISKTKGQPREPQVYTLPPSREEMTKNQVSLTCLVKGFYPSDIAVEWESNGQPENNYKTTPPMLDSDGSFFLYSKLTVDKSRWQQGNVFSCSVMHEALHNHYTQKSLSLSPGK
notes: also called IL2 wt; IL2 WT
